Assay results reported in patent US20240076403A1 (SIMCERE ZAIMING PHARMACEUTICAL, published 2024).

B1: NB147-83 VHH-hFc (Fc fusion)
chain: QLQLVESGGGLVQPGGSLTLSCAASGFPASHYYAIRWFRQAPGKERDGIACISSYDGSTNYADSVKGRFTISNDGAKKTVYLHMSDVQPEDAAVYFCAATIHFSAYEECQAYEYHYWGQGTQVTVSS[human IgG1 Fc with changes not written out]
notes: the junction is not described
B2: NB146-27 VHH-hFc (Fc fusion)
chain: EVQLVESGGGLAQPGGSLRLSCAASGFRFTSYWMHWVRQAPGKGLEWVSAINTGGGSTYYADSVKGRFTISRDNAKNTLYLQMNSLKPEDTALYYCARDLSGSDYVVGITSWGQGTQVTVSS[human IgG1 Fc with changes not written out]
notes: the junction is not described
B3: Tab094 (FRP5 ScFv-human IgG1 Fc (hFc)) (Fc fusion)
scFv: QVQLQQSGPELKKPGETVKISCKASGYPFTNYGMNWVKQAPGQGLKWMGWINTSTGESTFADDFKGRFDFSLETSANTAYLQINNLKSEDMATYFCARWEVYHGYVPYWGQGTTVTVSSGGGGSGGGGSGGGGSDIQLTQSHKFLSTSVGDRVSITCKASQDVYNAVAWYQQKPGQSPKLLIYSASSRYTGVPSRFTGSGSGPDFTFTISSVQAEDLAVYFCQQHFRTPFTFGSGTKLEIK[human IgG1 Fc with changes not written out]
notes: Control antibody; also called Tab94; FRP5 scFv-hFc
B4: NB147-110 VHH-hFc (Fc fusion)
chain: EVQVVESGGGLVQPGGSLRLSCTASGHTLDYYAIGWFRQAPGKEREGVSCITSTGTITNYADSVKGRFTISRDNAKNTVYLQMNSLKPEDTAVYYCAVLRGSYCRSNTFDAWGQGTLVTVSS[human IgG1 Fc with changes not written out]
notes: the junction is not described
B5: NB147-161 VHH-hFc (Fc fusion)
chain: QLQLVESGGGWVQAGGSLRLSCAASGFTLDYYAIGWFRQAPGKEREGVSCISSSGGRSNYADSVKGRFTISRDNAKNTVYLQMNSLKIEDTGVYYCAAVILDDSWQCGYYYNMDYWGKGTLVTVSS[human IgG1 Fc with changes not written out]
notes: the junction is not described
B6: NB147-137 VHH-hFc (Fc fusion)
chain: EVQVVESGGGLVQPGGSLRLSCAASGFTLDYHAIGWFRQAPGKEREGVSCISSSGGRTNYADSVKGRFTISRDNAKNTVYLQMNSLKPEDTAVYYCAAEIFDSAWYCPLSRYDMDYWGKGTLVTVSS[human IgG1 Fc with changes not written out]
notes: the junction is not described
B7: NB146-54 VHH-hFc (Fc fusion)
chain: QLQLVESGGGLVQAGGSLRLSCVASGTFFSTKTMAWYRQAPGNQREWIATISPDGTTRHADSMKGRSTISRDNAKKVVYLQLDSLKPEDTAAYYCRDISRDLWGQGTQVTVSS[human IgG1 Fc with changes not written out]
notes: the junction is not described
B8: NB147-14 VHH-hFc (Fc fusion)
chain: QVQLVESGGGLVRPGGSLRLSCVLSGRTFSDYAMRWFRQAPGKEREFVASINWSGTHTDYADSVKGRFTISRDNAKKTVYLQMHSLTPTDTAVYYCTFGWGPQLPGTDYWGQGTQVTVAP[human IgG1 Fc with changes not written out]
notes: the junction is not described
B9: NB146-125 VHH-hFc (Fc fusion)
chain: EVQLVESGGGLVQAGGSLTLSCVASETIFRRNAMAWYRQAPGQQRELVASIRRGAFTYYPNSMKGRFTISRDDAKNTVFLQMNSLKPEDTGVYYCRSLNDDYWGQGTQVTVSS[human IgG1 Fc with changes not written out]
notes: the junction is not described
B10: NB146-28 VHH-hFc (Fc fusion)
chain: EVQLVESGGTRVQPGGSLKLSCATSGIMFSYNTMAWYRQAPGKQRELVATITRDGSTNYADSMKGRFTISRDNAKNTLYLQMNGLKPEDTAVYYCNLGTTDWRRYNYWGQGTQVTVSS[human IgG1 Fc with changes not written out]
notes: the junction is not described

Assays:
[1] = molecular target: T1, murine HER2-His protein (murine, UniProt P70424 23-653); assay: ELISA, coated murine HER2-His
T1 construct: Bought protein; also called murine HER2 protein; not shown: His tag
T1 sequence (P70424 23-653): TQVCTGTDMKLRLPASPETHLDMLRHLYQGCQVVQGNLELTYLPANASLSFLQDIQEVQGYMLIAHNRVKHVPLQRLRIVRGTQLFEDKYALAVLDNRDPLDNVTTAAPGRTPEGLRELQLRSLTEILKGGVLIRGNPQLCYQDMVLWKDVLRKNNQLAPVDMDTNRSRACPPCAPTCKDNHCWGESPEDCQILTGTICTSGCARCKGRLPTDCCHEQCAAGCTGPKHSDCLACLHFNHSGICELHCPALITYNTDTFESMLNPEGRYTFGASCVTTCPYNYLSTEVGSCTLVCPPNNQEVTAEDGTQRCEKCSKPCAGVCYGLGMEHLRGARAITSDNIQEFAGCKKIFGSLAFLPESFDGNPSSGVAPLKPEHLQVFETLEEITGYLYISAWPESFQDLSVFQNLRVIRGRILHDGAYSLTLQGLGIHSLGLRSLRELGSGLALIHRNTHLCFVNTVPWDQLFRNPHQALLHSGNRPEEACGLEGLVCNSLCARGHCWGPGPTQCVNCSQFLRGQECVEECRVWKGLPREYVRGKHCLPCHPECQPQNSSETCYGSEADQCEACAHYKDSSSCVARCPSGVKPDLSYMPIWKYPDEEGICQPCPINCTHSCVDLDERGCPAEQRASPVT

[2] = molecular target: T2, monkey HER2 on HEK293T-monkey-HER2 cells (monkey); assay: FACS on HEK293T-monkey-HER2 cells
T2 construct: whole, on cells

[3] = molecular target: T3, recombinant human HER2-His protein (human, UniProt P04626 in part, limits assumed); assay: SPR, antibody captured on Protein A chip, human HER2-His analyte, 1:1 model
T3 construct: also called human HER2 protein; not shown: His tag

[4] = molecular target: T4, monkey HER2-His protein (monkey); assay: SPR, antibody captured on Protein A chip, monkey HER2-His analyte, 1:1 model
T4 construct: Bought protein; also called monkey HER2 protein

[5] = molecular target: T4, monkey HER2-His protein; assay: ELISA, coated monkey HER2-His

Row | Binder | OD450 nm at 0.0001 nM antibody [1] [OD450 nm] | OD450 nm at 0.001 nM antibody [1] [OD450 nm] | OD450 nm at 0.01 nM antibody [1] [OD450 nm] | OD450 nm at 0.1 nM antibody [1] [OD450 nm] | OD450 nm at 1 nM antibody [1] [OD450 nm] | EC50 [2] [nM] | Max MFI [2] [MFI] | Kd [3] [nM] | koff [3] [s⁻¹] | kon [3] [M⁻¹ s⁻¹] | Kd [4] [nM] | koff [4] [s⁻¹] | kon [4] [M⁻¹ s⁻¹] | OD450 nm at 0.0001 nM antibody [5] [OD450 nm] | OD450 nm at 0.001 nM antibody [5] [OD450 nm] | OD450 nm at 0.01 nM antibody [5] [OD450 nm] | OD450 nm at 0.1 nM antibody [5] [OD450 nm] | OD450 nm at 1 nM antibody [5] [OD450 nm] | OD450 nm at 10 nM antibody [5] [OD450 nm] | OD450 nm at 100 nM antibody [5] [OD450 nm] | other results
1 | B1 | 0.05 | 0.06 | 0.05 | 0.05 | 0.05 | 4.82 | 20800 | 69 | 0.00208 | 30100 | 1710 | 0.00218 | 1270 | 0.06 | 0.06 | 0.1 | 0.43 | 2.52 | 3.27 | 3.32 | OD450 nm at 10 nM antibody [1]: 0.06 OD450 nm; OD450 nm at 100 nM antibody [1]: 0.07 OD450 nm
2 | B2 | – | – | – | – | – | 2.81 | 19300 | 423 | 0.00878 | 20800 | – | – | – | 0.05 | 0.06 | 0.11 | 0.65 | 2.16 | 2.46 | 2.99 | –
3 | B3 | – | – | – | – | – | 4.61 | 24100 | 0.459 | 4.57e-05 | 99600 | 0.849 | 8.23e-05 | 96900 | 0.07 | 0.07 | 0.12 | 0.77 | 3.02 | 3.29 | 3.29 | –
4 | B4 | – | – | – | – | – | 1.87 | 21500 | 78.5 | 0.00438 | 55900 | 54.2 | 0.00417 | 76900 | 0.06 | 0.06 | 0.12 | 0.79 | 2.72 | 3.02 | 3.06 | –
5 | B5 | – | – | – | – | – | 4.19 | 14700 | 49.6 | 0.00465 | 93700 | – | – | – | 0.05 | 0.05 | 0.08 | 0.51 | 2.23 | 2.68 | 2.87 | –
6 | B6 | – | – | – | – | – | 3.39 | 17600 | 267 | 0.0144 | 54100 | – | – | – | 0.05 | 0.06 | 0.16 | 0.98 | 2.65 | 2.85 | 3.18 | –
7 | B7 | 0.05 | 0.05 | 0.05 | 0.05 | 0.05 | 1.71 | 23000 | 6.22 | 0.000301 | 48300 | 8.53 | 0.000568 | 66500 | 0.05 | 0.05 | 0.08 | 0.36 | 1.19 | 1.69 | 2.01 | OD450 nm at 10 nM antibody [1]: 0.05 OD450 nm; OD450 nm at 100 nM antibody [1]: 0.05 OD450 nm
8 | B8 | 0.05 | 0.05 | 0.05 | 0.05 | 0.09 | 1.43 | 21300 | 29.7 | 0.0199 | 671000 | 37.8 | 0.0164 | 434000 | 0.05 | 0.07 | 0.15 | 1 | 3.1 | 3.25 | 3.31 | OD450 nm at 10 nM antibody [1]: 0.05 OD450 nm; OD450 nm at 100 nM antibody [1]: 0.07 OD450 nm
9 | B9 | 0.05 | 0.05 | 0.05 | 0.05 | 0.06 | 1.4 | 21300 | 11.6 | 0.000789 | – | 28.4 | 0.00211 | 74100 | 0.06 | 0.08 | 0.08 | 0.3 | 0.99 | 1.35 | 1.56 | OD450 nm at 10 nM antibody [1]: 0.06 OD450 nm; OD450 nm at 100 nM antibody [1]: 0.06 OD450 nm
10 | B10 | 0.05 | 0.05 | 0.05 | 0.05 | 0.05 | 1.15 | 19800 | 11.3 | 0.0022 | 194000 | 38.8 | 0.0115 | 295000 | 0.05 | 0.06 | 0.12 | 0.71 | 2.18 | 2.41 | 2.93 | OD450 nm at 10 nM antibody [1]: 0.05 OD450 nm; OD450 nm at 100 nM antibody [1]: 0.05 OD450 nm
